# This excerpt belongs to a sample that is enriched for the strongest signals.
# Columns and labels:
# Test in all cases: glycan array binding signal (z-score within array); higher = stronger binding
# Details in all cases: glycan notation: IUPAC condensed, linker removed
# [1] = tested on: Neu5Ac(a2-6)Gal(b1-4)GlcNAc(b1-2)Man(a1-3)[Gal(b1-4)GlcNAc(b1-2)Man(a1-6)]Man(b1-4)GlcNAc(b1-4)GlcNAc
# In short: (§1)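 Columns mapping to the same glycan were averaged after glycan names were converted to IUPAC-condensed notation. The data come from 3228 arrays in the Consortium for Functional Glycomics database, limited to those with an available protein sequence. Binding is reported as a within-array Z-score averaged across arrays of one protein sequence and across linkers.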
# [2] = tested on: Neu5Ac(a2-3)[GalNAc(b1-4)]Gal(b1-4)GlcNAc(b1-3)GalNAc
# In short: as §1
# [3] = tested on: Neu5Ac(a2-3)[GalNAc(b1-4)]Gal(b1-4)GlcNAc
# In short: as §1
# [4] = tested on: Neu5Ac(a2-3)[GalNAc(b1-4)]Gal(b1-4)Glc
# In short: as §1
# [5] = tested on: Neu5Ac(a2-3)Gal(b1-4)[Fuc(a1-3)]GlcNAc(b1-3)Gal(b1-4)[Fuc(a1-3)]GlcNAc(b1-3)Gal(b1-4)[Fuc(a1-3)]GlcNAc
# In short: as §1
# [6] = tested on: Neu5Ac(a2-3)GalNAc
# In short: as §1
# [7] = tested on: Neu5Ac(a2-3)Gal(b1-4)[Fuc(a1-3)]GlcNAc
# In short: as §1
# [8] = tested on: Neu5Ac(a2-3)GalNAc(b1-4)GlcNAc
# In short: as §1
# [9] = tested on: Neu5Ac(a2-3)Gal(b1-4)[Fuc(a1-3)]GlcNAc(b1-3)GalNAc
# In short: as §1
# [10] = tested on: Neu5Ac(a2-3)Gal(b1-4)[Fuc(a1-3)]GlcNAc(b1-3)Gal(b1-4)GlcNAc
# In short: as §1
# [11] = tested on: Neu5Ac(a2-3)Gal6S(b1-4)[Fuc(a1-3)]GlcNAc
# In short: as §1
# [12] = tested on: Neu5Ac(a2-6)Gal(b1-3)GlcNAc(b1-3)[Gal(b1-4)GlcNAc(b1-6)]Gal(b1-4)Glc
# In short: as §1
# [13] = tested on: Neu5Ac(a2-3)Gal(b1-4)[Fuc(a1-3)]GlcNAc(b1-6)[Neu5Ac(a2-3)Gal(b1-3)]GalNAc
# In short: as §1
# [14] = tested on: Neu5Ac(a2-3)Gal(b1-4)[Fuc(a1-3)]GlcNAc(b1-3)Gal
# In short: as §1
# [15] = tested on: Neu5Ac(a2-3)[Neu5Ac(a2-6)]GalNAc
# In short: as §1
# [16] = tested on: Neu5Ac(a2-6)Gal(b1-4)GlcNAc(b1-2)Man(a1-3)[GlcNAc(b1-2)Man(b1-4)GlcNAc(b1-2)Man(a1-6)]Man(b1-4)GlcNAc(b1-4)GlcNAc
# In short: as §1
# [17] = tested on: Neu5Ac(a2-6)Gal(b1-4)GlcNAc(b1-2)Man(a1-3)[GlcNAc(b1-2)Man(a1-6)]Man(b1-4)GlcNAc(b1-4)GlcNAc
# In short: as §1
# [18] = tested on: Neu5Ac(a2-6)Gal(b1-4)GlcNAc(b1-2)Man(a1-3)[Man(a1-6)]Man(b1-4)GlcNAc(b1-4)GlcNAc
# In short: as §1
# [19] = tested on: Neu5Ac(a2-3)Gal(b1-4)[Fuc(a1-3)]GlcNAc(b1-6)[Gal(b1-3)]GalNAc
# In short: as §1
# [20] = tested on: Neu5Ac(a2-6)Gal(b1-4)GlcNAc(b1-2)Man(a1-3)[GlcNAc(b1-4)][Neu5Ac(a2-6)Gal(b1-4)GlcNAc(b1-2)Man(a1-6)]Man(b1-4)GlcNAc(b1-4)GlcNAc
# In short: as §1
substance,measurement,setting,value
FGF2 (chain not printed),glycan array binding signal (z-score),[1],-0.078
Siglec-2 (Homo sapiens) (chain not printed),glycan array binding signal (z-score),[1],1.89
M-Ficolin G221F A256V (Homo sapiens) (chain not printed),glycan array binding signal (z-score),[2],4.39
same,glycan array binding signal (z-score),[3],5.07
same,glycan array binding signal (z-score),[4],4.43
M-Ficolin Y271F (Homo sapiens) (chain not printed),glycan array binding signal (z-score),[5],-0.464
same,glycan array binding signal (z-score),[2],5.4
same,glycan array binding signal (z-score),[3],2.75
same,glycan array binding signal (z-score),[4],6.12
VWF (Homo sapiens) (chain not printed),glycan array binding signal (z-score),[6],-0.016
same,glycan array binding signal (z-score),[3],-0.299
Gal 3 (Homo sapiens) (chain not printed),glycan array binding signal (z-score),[4],-0.274
Collectin K1 (Homo sapiens) (chain not printed),glycan array binding signal (z-score),[7],-0.101
same,glycan array binding signal (z-score),[8],-0.133
same,glycan array binding signal (z-score),[6],-0.203
CLEC-2 (Homo sapiens) (chain not printed),glycan array binding signal (z-score),[9],2.52
same,glycan array binding signal (z-score),[1],0.851
Angiogenin (Homo sapiens) (chain not printed),glycan array binding signal (z-score),[10],0.745
Thrombomodulin Extracellular (Homo sapiens) (chain not printed),glycan array binding signal (z-score),[11],-0.315
same,glycan array binding signal (z-score),[12],-0.902
M-Ficolin (Homo sapiens) (chain not printed),glycan array binding signal (z-score),[10],-0.09
same,glycan array binding signal (z-score),[13],-0.01
same,glycan array binding signal (z-score),[3],3.47
same,glycan array binding signal (z-score),[4],4.08
L-Ficolin (Homo sapiens) (chain not printed),glycan array binding signal (z-score),[5],-0.479
same,glycan array binding signal (z-score),[6],0.492
same,glycan array binding signal (z-score),[3],0.077
M-Ficolin A256V (Homo sapiens) (chain not printed),glycan array binding signal (z-score),[14],-0.178
same,glycan array binding signal (z-score),[2],6.89
same,glycan array binding signal (z-score),[3],5.85
same,glycan array binding signal (z-score),[4],8.07
same,glycan array binding signal (z-score),[15],-0.165
same,glycan array binding signal (z-score),[1],-0.159
same,glycan array binding signal (z-score),[16],-0.036
Meso764 (Homo sapiens) (chain not printed),glycan array binding signal (z-score),[12],0.43
same,glycan array binding signal (z-score),[1],2.04
same,glycan array binding signal (z-score),[17],-0.18
same,glycan array binding signal (z-score),[18],-0.386
M-Ficolin G221F (Homo sapiens) (chain not printed),glycan array binding signal (z-score),[11],-0.162
same,glycan array binding signal (z-score),[2],4.86
same,glycan array binding signal (z-score),[3],5.47
same,glycan array binding signal (z-score),[4],6.55
NCAM1 (Homo sapiens) (chain not printed),glycan array binding signal (z-score),[10],0.074
same,glycan array binding signal (z-score),[9],6.09
same,glycan array binding signal (z-score),[19],3.74
same,glycan array binding signal (z-score),[7],-0.322
same,glycan array binding signal (z-score),[2],-0.411
MBP (Homo sapiens) (chain not printed),glycan array binding signal (z-score),[20],-0.42
H-Ficolin (Homo sapiens) (chain not printed),glycan array binding signal (z-score),[19],3.43
same,glycan array binding signal (z-score),[17],-0.252
Gal 8-short (Homo sapiens) (chain not printed),glycan array binding signal (z-score),[6],-0.721
Galectin-8 C-terminal CRD (Homo sapiens) (chain not printed),glycan array binding signal (z-score),[7],-0.329
same,glycan array binding signal (z-score),[6],-0.354

# — the supplement of paper PMC8728848
